Test results taken from PubChem BioAssay AID1671189 (National Center for Advancing Translational Sciences (NCATS), 2021).
The whole screen tested about 1,100 compounds, of which about 70 (6%) were called active. Inconclusive results (about 22%) are left out. Calls come from the whole dose curve; as a rule, active = well fitted curve in the direction sought with a large enough effect; inconclusive = small, poorly fitted or top-dose-only effect, or another doubt; inactive = no such curve, though single readings can be large or run the other way. The list shows a part of the results.

What follows are molecules tested against Polyunsaturated fatty acid lipoxygenase ALOX12 (Homo sapiens) (UniProt P18054) (assay: Confirmatory qHTS assay for inhibitors of human arachidonate 12S-lipoxygenase (ALOX12): Round 2). Conditions: purified human 12-LOX, xylenol orange absorbance; series mostly up to 125 µM; activity change, negative = inhibition: at the top concentration.
Outline: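 Activity was measured as hydroperoxide formation via ferrous/xylenol orange, taking the 573 nm to 405 nm absorbance ratio. Reaction: 40 uM arachidonic acid, 30 min at room temperature, after 15 min compound preincubation with 150 nM enzyme, pH 7.0 Hepes buffer.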
% is set by controls: 0 for no effect and ±100 for the full control effect; potency is the fitted concentration of half-maximal effect.

UniProt P18054, sequence (P18054 whole entry, looked up): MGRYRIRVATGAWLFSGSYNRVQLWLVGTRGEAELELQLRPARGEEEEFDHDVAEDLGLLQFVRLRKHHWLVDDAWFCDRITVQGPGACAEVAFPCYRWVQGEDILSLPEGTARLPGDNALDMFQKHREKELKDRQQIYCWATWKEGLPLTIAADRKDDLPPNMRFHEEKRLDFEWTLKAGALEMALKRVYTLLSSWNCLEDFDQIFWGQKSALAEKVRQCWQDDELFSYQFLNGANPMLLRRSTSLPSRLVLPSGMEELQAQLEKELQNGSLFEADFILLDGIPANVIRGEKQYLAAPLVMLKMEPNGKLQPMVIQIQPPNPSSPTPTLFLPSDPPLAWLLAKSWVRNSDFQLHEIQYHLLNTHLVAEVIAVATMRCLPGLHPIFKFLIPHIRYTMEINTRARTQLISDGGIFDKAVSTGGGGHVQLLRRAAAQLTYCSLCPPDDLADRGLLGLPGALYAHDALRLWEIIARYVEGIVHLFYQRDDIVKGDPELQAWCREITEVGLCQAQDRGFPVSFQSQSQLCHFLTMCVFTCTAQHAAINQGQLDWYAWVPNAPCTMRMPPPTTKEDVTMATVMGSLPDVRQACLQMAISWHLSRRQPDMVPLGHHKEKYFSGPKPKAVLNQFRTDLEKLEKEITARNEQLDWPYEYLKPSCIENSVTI

Row | Structure (SMILES) | activity change, negative = inhibition | Potency
1 | CN1CC(=O)N(C2CCNCC2)Cc2c(NCCc3cccc(F)c3)ncnc21 | inactive: -18.2% | 
2 | CN1CCC(C(=O)N2Cc3ccccc3OC3(CCN(C(=O)N(C)C)CC3)C2)CC1 | inactive: -22.8% | 
3 | COc1ccc(C(=O)N2CCOC3(CCN(C(=O)CCN)CC3)C2)cc1 | inactive: 8.03% | 
4 | CC[C@@H](Nc1ncnc2c1CN(C1CCNCC1)C(=O)CN2C)c1ccccc1 | inactive: -21.4% | 
5 | O=C(c1ccc(C(F)(F)F)cc1)N1CCc2nc(C3CC3)nc(-c3ccc(Cl)cc3)c2C1 | inactive: -19.2% | 
6 | COc1ccc(-c2cnc([C@@H]3COCCN3C3CCN(C(C)=O)CC3)[nH]2)cc1 | inactive: -0.777% [at 64.5 µM] | 
7 | C=CCNC(=O)[C@@H]1Cc2cn(CC#CC)c3cccc(c23)[C@H](CC(C)C)N1 | inactive: 24% [at 64.5 µM] | 
8 | CCc1nc2c(c(-c3ccc(OC)cc3)n1)CCN(Cc1ccc(OC)cc1)CC2 | inactive: -27.7% | 
9 | CC(=O)N1CCCN(c2ncnc3c2CN(C2CCNCC2)C(=O)CN3C)CC1 | inactive: -15.8% | 
10 | CN1CC(=O)N(C2CCCNCC2)Cc2c1ncnc2N1CCC(C#N)CC1 (centres undefined) | inactive: -16.1% | 
11 | O=C(O)c1cccc(-c2cnc3ccccc3c2)c1 | inactive: -20.4% | 
12 | O=C(NC1CCCCC1)O[C@@H]1CO[C@H]2[C@@H]1OC[C@@H]2n1nnnc1SCc1ccco1 |  | active: 7.08 µM
13 | Cc1ccc(CN2CCCC3(Cc4ccccc4CNC3=O)C2)cc1 (centres undefined) | inactive: -14.8% | 
14 | COc1ccc(-c2cc(C(=O)NC3CCNCC3)c3c(C4CCCN4)noc3n2)cc1 (centres undefined) | inactive: -12.7% | 
15 | Cc1cc(C)cc(CN2CCC3(Cc4ccccc4CNC3=O)C2)c1 (centres undefined) | inactive: -13.7% | 
16 | O=Cc1ccc(-c2ccc(C(=O)O)cn2)cc1 | inactive: -24% | 
17 | COc1ccc(-n2cc(-c3ccnc(N(C)Cc4cnccn4)n3)cn2)cc1 | inactive: 15.4% [at 64.5 µM] | 
18 | CN1CC(=O)N(C2CCNC2)Cc2c(NC3CCCC3)ncnc21 (centres undefined) | inactive: -20.8% | 
19 | COc1cccc(N2C(=O)NC(=NC3CCCC3)C23CCCN([S+](=O)([O-])c2ccccc2)C3)c1 (centres undefined) | inactive: -19.6% | 
20 | O=C(Nc1ccc(F)cc1)c1c[nH]c2cccnc12 | inactive: -7.09% | 
21 | CC(=O)NCCCC(=O)N1CCOC2(CCN(C(=O)CCCN)CC2)C1 | inactive: -25.7% | 
22 | O=c1cc(N2CCOCC2)oc2c(Nc3ccccc3)nccc12 | inactive: -19.7% [at 64.5 µM] | 
23 | CN1CC(=O)N(C2CCCNCC2)Cc2c1ncnc2N1CCN(Cc2ccccc2)CC1 (centres undefined) | inactive: -10.1% | 
24 | O=C1NCc2ccccc2CC12CCN(Cc1cc(O)cc(O)c1)C2 (centres undefined) | inactive: -15% | 
25 | COc1ccc(CNc2ncnc3c2CN(C2CCCNCC2)C(=O)CN3C)cc1 (centres undefined) | inactive: -4.88% | 
26 | CC(=O)NCC1(COc2cnccn2)C[C@@H](O)[C@@H](O)C1 (some centres undefined) | inactive: -1.32% | 
27 | CN1C(=O)[C@@H]2C[C@@H](CN2C2CCCC2)Oc2ccccc21 | inactive: 14.6% | 

Row | Structure (SMILES) | activity change, negative = inhibition | Potency
28 | NCc1cccc(-c2cncnc2)c1 | inactive: -4.13% | 
29 | O=C(NC1CCCCC1)N[C@H]1CCN2C(=O)c3ccccc3NC(=O)[C@H]12 | inactive: -0.661% [at 64.5 µM] | 
30 | CCC(=O)N1Cc2ccccc2CC2(CCCCN2CC2CCNC2)C1 (centres undefined) | inactive: -4.6% | 
31 | CC(=O)N1CCCC2(CC(c3ccccn3)=NO2)C1 (centres undefined) | inactive: -12% [at 233 µM] | 
32 | CN(c1ccccc1)c1ccc2nnc(-c3cc(C(=O)NCc4cccnc4)ccn3)n2n1 | inactive: 4.47% [at 64.5 µM] | 
33 | O=C(Nc1ccccc1)O[C@@H]1CO[C@H]2[C@@H]1OC[C@@H]2n1nnnc1SCc1ccco1 | inactive: -10.7% [at 64.5 µM] | 
34 | CCCCCNc1ncnc2c1CN(C1CCNCC1)C(=O)CN2C | inactive: -9.78% | 
35 | COc1ccnc(N2CCN(CC3(O)CNCCOC3)CC2)n1 (centres undefined) | inactive: -16.3% [at 64.5 µM] | 
36 | O=C(OCc1ccc(CSc2nnc(-c3cccc4ccccc34)o2)cc1)c1ccc(F)cc1 | inactive: 7.62% [at 64.5 µM] | 
37 | O=C1NCc2ccccc2CC12CCN(Cc1ccccc1F)C2 (centres undefined) | inactive: -20.1% | 
38 | CC1CCCN1c1ncnc2c1CN(C1CCCNCC1)C(=O)CN2C (centres undefined) | inactive: -18.8% | 
39 | CCOc1ccc(-c2cccc3c2CCNC3)cc1C(N)=O | inactive: 10.1% [at 64.5 µM] | 
40 | Cc1ccc(CC(=O)N2CCN(c3cc(C(F)(F)F)ncn3)CC2)cc1 | inactive: -12% [at 64.5 µM] | 
41 | O=C(C1CCCC1)N1Cc2ccccc2CC2(CCN(Cc3cccnc3)C2)C1 (centres undefined) | inactive: -28.9% | 
42 | NCC(=O)N1CCC2(CC1)CN(C(=O)c1ccc(Cl)cc1)CCO2 | inactive: 5.55% | 
43 | O=C(NC1CC1)c1cc(C2CC2)nc2onc(C3CCNCC3)c12 | inactive: -20.1% | 
44 | COCCNc1ncnc2c1CN(C1CCNCC1)C(=O)CN2C | inactive: -20.2% | 
45 | CNC(=O)c1cn2c(n1)CN(C(=O)OC)CC2 | inactive: -9% [at 233 µM] | 
46 | CNC(C)c1cccc(OC)c1 (centres undefined) | inactive: -2.95% [at 233 µM] | 
47 | CN1CC(=O)N(C2CNC2)Cc2c(NC3CC3)ncnc21 | inactive: 5.35% | 
48 | CCn1ccc(C(=O)NC2CCCN(c3cc(-c4ccc(Cl)cc4)[nH]n3)C2)n1 (centres undefined) | inactive: -7.64% [at 64.5 µM] | 
49 | C[S+](=O)([O-])N1Cc2ccccc2CC2(CCN(CC3CCNC3)CC2)C1 (centres undefined) | inactive: -9.86% | 
50 | FC(F)(F)c1ccc(CN2CCCC3(CC(c4cccc(C(F)(F)F)c4)=NO3)C2)cc1 (centres undefined) | inactive: -22.5% | 
51 | COCCCNC(=O)c1cc(C2CC2)nc2c1c(C1CCCN1)nn2-c1ccccc1 (centres undefined) | inactive: -7.44% | 
52 | CCN(CC)[C@H]1[C@@H]2OC[C@@H](O2)[C@@H](NCc2ccc(N(C)C)cc2)[C@@H]1O | inactive: -0.5% [at 64.5 µM] | 
53 | CS(=O)(=O)NC[C@H]1O[C@@H](CO)[C@@H](O)C1N1CCN(c2ccccc2)CC1 (some centres undefined) | inactive: -13.4% [at 64.5 µM] | 
54 | CC(C)OCCCNC(=O)c1cc(C2CC2)nc2onc(C3CCCN3)c12 (centres undefined) | inactive: -8.53% | 
